Results from PubChem BioAssay AID1963576 (National Center for Advancing Translational Sciences (NCATS), 2024).
In all, about 46,000 compounds went through this assay and about 60 (0.1%) were called active. About 3% were inconclusive and are not listed. Calls follow the shape of the dose curve; as a rule, active = well fitted inhibition curve with a large enough effect; inconclusive = small, poorly fitted or top-dose-only effect; inactive = no such curve, though single readings can be large or run the other way. The list shows a part of the results.

Assay: Primary qHTS assay for Inhibitors of ovarian cancer metastasis using an organotypic tumor microenvironment (TME) model. Also: nearly all actives have a fitted effect of over 65% in size.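 As to activity change, negative = inhibition: plate controls were DMSO wells for no effect and tomatine positive control wells for full effect.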
Details: SKOV3ip1-GFP adhesion/invasion on 3D omental model, fluorescence; series mostly up to 45.8 µM; activity change, negative = inhibition: at the top concentration
Outline: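 Primary human omental fibroblast/mesothelial 3D culture pre-formed 48 h. SKOV3ip1-GFP cells added with compounds (0.36-46 umol/L), incubated 2 h RT/16 h 37 C, fixed; GFP cells quantified at 488/509 nm.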

Activity change, negative = inhibition, inactive:
Cc1ccc(Cl)cc1Nc1nn2c(=O)c3ccc(C(=O)NC(C)c4ccccc4)cc3nc2s1 (stereo unspecified) -39.7%
O=c1c2sc3ccccc3c2n(Cc2ccc(F)cc2Cl)c(=O)n1Cc1ccccc1 8.13%
CN(C(=O)CSc1nc2ccccc2n1Cc1ccccc1C#N)c1ccccc1 -0.472%
CCOc1ccc(-c2nc3cc(NC(=O)COc4cccc(C)c4)ccc3o2)cc1 -6.31%
Cc1ccc(S(=O)(=O)C(CNC(=O)C(=O)NCc2ccc(Cl)cc2)c2ccco2)cc1 (stereo unspecified) -1.24%
CCOC(=O)c1ccc(-c2ccc(/C=C(\C#N)C(=O)Nc3ccc(C)cc3)o2)cc1 2.3%
COc1cc(CN(C(=O)c2ccc(Cl)cc2)C2CCS(=O)(=O)C2)cc(OC)c1OC (stereo unspecified) -4.98%
CCn1cc(S(=O)(=O)c2ccc(Cl)cc2)c(=O)c2cc(F)c(N3CCOCC3)cc21 17.8%
Cc1ccc2onc(CNC(=O)N3CCN(c4cccc(C(F)(F)F)c4)CC3)c2c1 0.551%
COCC(=O)Nc1c(C(=O)Nc2ccc(C)cc2)oc2ccccc12 -6.85%
CCOc1ccc(S(=O)(=O)N(CC(=O)Nc2ccc3c(c2)OCO3)c2ccc(C)cc2)cc1 -4.51%
Cc1ccc2oc(-c3ccc(C)c(NC(=O)c4ccc(-c5ccccc5[N+](=O)[O-])o4)c3)nc2c1 -23.1%
COC(=O)c1ccc2c(=O)n(CCCCCC(=O)N3CCN(c4ccc(Cl)cc4)CC3)c(=O)[nH]c2c1 2.86%
Cc1ccc(CCNC(=O)CCn2nc(-c3ccc(C)cc3)ccc2=O)cc1 18.1%
COc1cccc(C(=O)n2nc(-c3cccnc3)nc2NCc2ccc(F)cc2)c1 -3.27%
Cc1c(Cl)cccc1NC(=O)Nc1ccc2snnc2c1 -29%
COC(=O)c1ccc(NC(=O)CN(Cc2ccccc2)S(=O)(=O)c2ccc(Cl)cc2)cc1 -6.14%
CCCSc1nnc2c(n1)OC(c1cccs1)Nc1ccc(Br)cc1-2 (stereo unspecified) 6.82%
CC(=O)Nc1ccc(NC(=O)c2cc(-c3ccc4c(c3)OCCO4)on2)cc1 1.91%
CCC(=O)N1c2ccc(S(=O)(=O)CCC(=O)NCc3cccc(OC)c3)cc2CC1C (stereo unspecified) 8.42%
Cc1cccc(S(=O)(=O)c2cn(C)c3cc(N4CCC(C)CC4)c(F)cc3c2=O)c1 30.5%
CCc1ccc(N(CC)C(=O)Cn2cnc3sc(C)c(S(=O)(=O)N4CCN(c5ncccn5)CC4)c3c2=O)cc1 6.36%
CCCOc1ccccc1C1C(C(=O)Nc2ccccc2)=C(C)Nc2nnnn21 (stereo unspecified) -23.1%
N#C/C(=C\c1cc(Br)c(O)c(Br)c1)c1nc2ccccc2c(=O)[nH]1 1.04%
CCc1ccc(OCC(=O)Nc2ccc3c(c2)c2ccccc2n3CC)c(Br)c1 5.31%
CCOc1ccc(NC(=O)C(C)n2c(=O)cc(C)c3c(C)nn(-c4ccccc4)c32)cc1 (stereo unspecified) -2.3%
Cc1ccc2onc(CC(=O)N3CCN(c4ccccc4)CC3)c2c1 -27.9%
COc1ccc(-c2nc(SCC(=O)NCCc3ccccc3)n[nH]2)cc1 -1.23%
COc1ccc(-c2noc(CSc3nnc(C)n3-c3ccc(C)c(C)c3)n2)c(OC)c1 -1.99%
O=C(NCc1ccccc1Cl)c1nnc(Cc2ccc(Cl)cc2)o1 -7.14%
Cc1cccc(CSc2ccc(-c3cccs3)nn2)c1 3.09%
CCc1ccc(NC(=O)CSc2ncc(S(=O)(=O)c3cc(C)ccc3C)c(=O)[nH]2)cc1 3.06%
O=NN(CCCl)C(=O)NC1CCCCC1 6.55%
COC(=O)c1c(NC(=O)c2ccc(S(=O)(=O)N(C)C3CCCCC3)cc2)sc2c1CCN(C)C2 12.1%
COC(=O)c1ccccc1NC(=O)C1CCCN(c2nnc(C)c3c(C)n(-c4ccccc4)nc23)C1 (stereo unspecified) -0.0812%
CCOC(=O)C(Cc1ccccc1)NC(=O)CCc1c(C)nc2c(c(C)nn2-c2ccc(C)c(C)c2)c1C (stereo unspecified) 39.4%
Cc1ccc(CNC(=O)CN2C(=O)C3(SCC(=O)N3c3ccc(F)c(F)c3)c3ccccc32)cc1 (stereo unspecified) -9.08%
COc1ccc(-c2nc(Cn3c(SCc4ccccc4F)nc4cccnc43)c(C)o2)cc1 0.716%
Cc1cccc(N2CCN(C(=O)CN3C(=O)COc4ccc(S(=O)(=O)N5CCCC5)cc43)CC2C)c1 (stereo unspecified) 21.1%
Cc1cc(NC(=O)C(C)(C)C)cc(-c2nc3ncccc3o2)c1O 3.29%
COc1ccc(OCC(=O)NCC(c2ccc(OC)cc2)N2CCOCC2)cc1 (stereo unspecified) -13.6%
Cc1ccc(C)c(N2CCN(C(=O)CS(=O)(=O)c3cccc4nsnc34)CC2)c1 -3.11%
COc1cccc(CNCCSc2nnnn2-c2ccccc2)c1OC 5.45%
COc1ccc(-c2c(C)c3ccc(O)c(CN4CCCC4)c3oc2=O)cc1 0.134%
Cc1ccc(CNC(=O)c2ccccc2NC(=O)c2nsc3ccccc23)cc1 -25.7%
CCc1c(CN2CCN(c3ccccc3F)CC2)csc1C 0.148%
CCn1c(SCC(=O)c2ccccc2)nnc1-c1cccc(Cl)c1 -5.65%
Cc1ccc2c(c1)c1c3n2CCN(C(=O)c2ccc(C(F)(F)F)cc2)C3CCC1 (stereo unspecified) -3.78%
COc1ccc(-c2cc(C(F)(F)F)n3nc(C(=O)Nc4cc(C)ccc4C)cc3n2)cc1 6.29%
Cc1nn(C(=O)c2cccc(F)c2)c(C)c1S(=O)(=O)N1CCOCC1 42%
O=C(C1CCN(c2ncnc3c2nc2n3CCCCC2)CC1)N1CCN(c2ccc(Cl)cc2)CC1 -5.41%
CCNC(=O)c1cc2n(n1)CCCN(Cc1ccc(C)cc1)C2=O 4.7%
COc1ccc(CCNC(=O)c2cc3c(=O)oc4ccc(C)cc4c3s2)cc1OC 3.29%
CCc1nn2c(=O)c(S(=O)(=O)Nc3ccc(Br)cc3F)c(C)nc2s1 9.92%
O=C(NC1CCCCC1)c1ccc(CSc2nc3ccncc3n2Cc2ccc(F)cc2)cc1 3.41%
Cc1ccccc1NC(=O)Cn1nnc(C(=O)NCCc2ccccc2)c1N 25.8%
Cc1cc(C)c(NC(=O)c2c(C)nn(-c3ccc(F)cc3)c2-n2cccc2)c(C)c1 -0.437%
CN1CCN(C(=O)Cn2ncc3c4ccccc4n(Cc4ccc(Cl)cc4)c3c2=O)CC1 -0.082%
O=C(CSc1nccn1Cc1ccc(F)cc1)NCc1ccc(F)cc1 -18%
CS(=O)(=O)N1CCc2cc(C(=O)N3CCN(c4ccccc4F)CC3)ccc21 -23%
O=C(CCSCc1ccc(Cl)cc1)NCc1ccc(F)cc1Cl 4.59%
COc1ccccc1CNc1nc2c(S(=O)(=O)c3ccccc3)nnn2c2ccc(Cl)cc12 -2.85%
COc1ccc(C2C=C(c3ccc(Br)cc3)Nc3nnnn32)c(OC)c1 (stereo unspecified) -16.8%
COc1ccc(Nc2cc(C(=O)NC3CCCC3)c3ccccc3n2)cc1 1.14%
Cc1ccc(NC(=O)c2c(NC(=O)c3ccccc3Cl)sc3c2CCC3)cc1 3.76%
CSc1nc(=O)c2c(n1C)NC(=O)CC2c1cc(F)cc(F)c1 (stereo unspecified) 29.8%
NC(=O)c1nn2c(C(F)(F)F)cc(-c3ccc(Br)cc3)nc2c1Cl -3.4%
COc1ccc(C2C(C(=O)Nc3ccc(C)cc3C)=C(C)Nc3nc(SCc4cccc(C)c4)nn32)c(OC)c1 (stereo unspecified) 41.5%
COc1ccccc1CNC(=O)CSc1nc(=O)[nH]c2c1CCC2 3%
CC1=C(C(=O)Nc2ccc(C)cc2C)C(c2ccc(Br)cc2)n2ncc(C(=O)Nc3cccc(C)c3)c2N1 (stereo unspecified) 1.33%
COc1ccccc1-c1nn2c(=O)cc(CN3CCN(C(=O)/C=C/c4ccccc4)CC3)nc2s1 -3.91%
CN(C)c1ccc(Nc2nc3ccccc3n3nnnc23)cc1 3.54%
CCCCCn1c(CNC(=O)c2ccccc2)nc2ccccc21 -12.3%
CCc1ccc(S(=O)(=O)NCc2nc3cccnc3n2Cc2cccc(OC)c2)cc1 9.37%
CCN(CC)c1ccc(-n2nc3cc(C)c(NC(=O)c4ccccc4C)cc3n2)c(C)c1 0.401%

outcome, inactive:
CCOc1ccc(-n2c(=O)c3c(C)c(C(=O)N(C)C)sc3n(Cc3cc(C)ccc3C)c2=O)cc1
Cc1ccc(CNC(=O)CN2C(=O)CCc3cc(S(=O)(=O)N4CCCCC4)ccc32)cc1
Cc1ccc(NC(c2nnc(-c3ccccc3)o2)c2ccccc2F)c(Cl)c1 (stereo unspecified)
COC(=O)c1ccc2nc(C)cc(Nc3cccc(Cl)c3C)c2c1
CCN(CC)CCSc1nnc2c3cc(F)ccc3n(CC)c2n1
O=C(NCCc1ccccc1)c1ccc(CS(=O)(=O)c2ccc(Cl)cc2)o1
COc1ccccc1CNC(=O)Cn1c(=O)nc(-c2ccccc2)c2ccccc21
CC1CCN(c2nc3ccc(C(=O)NCCc4ccc(S(N)(=O)=O)cc4)cc3s2)CC1
COc1ccc(CC(=O)NC2CC(=O)N(c3ccc(C)c(C)c3)C2)cc1OC (stereo unspecified)
O=C(CN1C(=O)CCc2cc(S(=O)(=O)N3CCCCC3)ccc21)NCc1ccc(Cl)cc1
Cc1cccc2sc(N(Cc3cccnc3)C(=O)C3COc4ccccc4O3)nc12 (stereo unspecified)
Cc1cc(NC(=O)c2cnc3c(-c4ccccc4)c(C)nn3c2C)ccc1Br
Cc1ccc(/C=C/c2onc(C)c2S(=O)(=O)N2CCC(C(=O)NCc3ccc(OC(C)C)cc3)CC2)cc1
CC1=C(C(=O)OCc2ccc(C)cc2)C(c2cccc(F)c2F)CC(=O)N1 (stereo unspecified)
COc1ccc(OCC(=O)Nc2ccc3nn(-c4ccc(OC)cc4)nc3c2)cc1
CCOC(=O)c1sc2ccccc2c1S(=O)(=O)N1CCN(c2cc(C)ccc2C)CC1
CC(=O)c1cccc(NC(=O)Cn2nc(C(F)(F)F)c3c2CCC3)c1
Cc1ccc(C)c(N(C)C(=O)Cc2c(C(=O)O)[nH]c3ccc(Cl)cc23)c1
COc1ccc(N2CCN(S(=O)(=O)c3ccc(-c4cnc(C5CC5)o4)cc3)CC2)cc1
COc1cccc(CNC(=O)CN2C(=O)N(c3cccc(Cl)c3)S(=O)(=O)c3ccccc32)c1OC
CCOc1ccc(NC(=O)Cn2c(=O)n(CCCCC(=O)NCc3ccc4c(c3)OCO4)c(=O)c3ccccc32)cc1
